From US20230002486A1 (SPARX THERAPEUTICS, published 2023) come the findings set out here.

Assay [1] addresses T1, CLDN 18.2 fused with GFP at its C-terminal, on MCF7 cells (MCF7-CLDN 18.2) (human). The assay is described as follows: cell-based or functional assay.
Assay [2] addresses T1, CLDN 18.2 fused with GFP at its …. The assay is described as follows: cell-based or functional assay. The source holds these as a separate data set.
The target in assay [3] is claudin 18.2 (CLDN 18.2), recombinant protein (human). As to the kind of experiment: direct ELISA, coated recombinant CLDN 18.2. An excerpt:
ELISA assay was employed to determine the binding properties of the bispecific antibodies to their antigens. […] The wells were then reacted with goat anti human IgG antibody conjugated with horseradish peroxidase (HRP).
(In general: ELISA stands for enzyme-linked immunosorbent assay.)

For assay [4] the target is unchanged. As to the kind of experiment: direct ELISA, coated recombinant CLDN 18.2 (FIG. 11B).
The target is the same in assay [5]. As to the kind of experiment: direct ELISA, coated recombinant CLDN 18.2 (FIG. 11A).

B1: Dblnk16, linker-enhanced single-chain bispecific antibody (bispecific antibody)
chain: DIQMTQSPSSLSASVGDRVTITCKSSQSLLNSGNQKSYLTWYQQKPGKAPKLLIYWASTLESGVPSRFSGSGSGTDYTLTISSLQPEDFATYYCQNAYFFPFTFGQGTKVEIKSSSGGEVQLVESGGGLVQPGGSLRLSCAASGFTFSRYWMSWVRQAPGKGLEWVANIKQDGSEKYYVDSVKGRFTISRDNAKNSLYLQMNSLRAEDTAVYYCAREGGWFGELAFDYWGQGTLVTVSSSGGGSSGSGGGRSGSEIVLTQSPGTLSLSPGERATLSCRASQRVSSSYLAWYQQKPGQAPRLLIYDASSRATGIPDRFSGSGSGTDFTLTISRLEPEDFAVYYCQQYGSLPWTFGQGTKVEIKSGGGGEVQLVESGGGLVQPGGSLRLSCAVSGYTFSMNWVRQAPGKGLEWVAWINMYTGEPTYADDFKGRFTISRDDSKNTLYLQMNSLRAEDTAVYYCARLYNGNSLDYWGQGTLVTVSSGGGGS[human IgG1 Fc with C220S (EU numbers) not printed]
notes: Single polypeptide with Fc; also called DbInk16
On to B1, for which the “ADCC reporter assay, EC50 (FIG. 24B)” value in assay [1] amounted to 0.00255 nM. In assay [2], the “ADCC Reporter in MCF7-CLDN 18.2, EC50” value was determined as 0.0025 nM. The Kd in assay [3] came out at 0.22 nM; in assay [4] it was 0.222 nM.

B2: Dblnk11, linker-enhanced single-chain bispecific antibody (bispecific antibody)
chain: DIQMTQSPSSLSASVGDRVTITCKSSQSLLNSGNQKSYLTWYQQKPGKAPKLLIYWASTLESGVPSRFSGSGSGTDYTLTISSLQPEDFATYYCQNAYFFPFTFGQGTKVEIKGSGSEVQLVESGGGLVQPGGSLRLSCAASGFTFSRYWMSWVRQAPGKGLEWVANIKQDGSEKYYVDSVKGRFTISRDNAKNSLYLQMNSLRAEDTAVYYCAREGGWFGELAFDYWGQGTLVTVSSSSGGSSGSSGSGSSGGEIVLTQSPGTLSLSPGERATLSCRASQRVSSSYLAWYQQKPGQAPRLLIYDASSRATGIPDRFSGSGSGTDFTLTISRLEPEDFAVYYCQQYGSLPWTFGQGTKVEIKSGGGSEVQLVESGGGLVQPGGSLRLSCAVSGYTFSMNWVRQAPGKGLEWVAWINMYTGEPTYADDFKGRFTISRDDSKNTLYLQMNSLRAEDTAVYYCARLYNGNSLDYWGQGTLVTVSSGGGGS[human IgG1 Fc with C220S (EU numbers) not printed]
notes: Single polypeptide with Fc; also called DbInk11
On to B2, for which the dissociation constant Kd in assay [3] was determined as 0.29 nM; in assay [5] it was 0.291 nM.

B3: Dblnk13, linker-enhanced single-chain bispecific antibody (bispecific antibody)
chain: DIQMTQSPSSLSASVGDRVTITCKSSQSLLNSGNQKSYLTWYQQKPGKAPKLLIYWASTLESGVPSRFSGSGSGTDYTLTISSLQPEDFATYYCQNAYFFPFTFGQGTKVEIKGGGGGEVQLVESGGGLVQPGGSLRLSCAASGFTFSRYWMSWVRQAPGKGLEWVANIKQDGSEKYYVDSVKGRFTISRDNAKNSLYLQMNSLRAEDTAVYYCAREGGWFGELAFDYWGQGTLVTVSSGSGSSSSSRSSSGSGGGEIVLTQSPGTLSLSPGERATLSCRASQRVSSSYLAWYQQKPGQAPRLLIYDASSRATGIPDRFSGSGSGTDFTLTISRLEPEDFAVYYCQQYGSLPWTFGQGTKVEIKSGGSGGEVQLVESGGGLVQPGGSLRLSCAVSGYTFSMNWVRQAPGKGLEWVAWINMYTGEPTYADDFKGRFTISRDDSKNTLYLQMNSLRAEDTAVYYCARLYNGNSLDYWGQGTLVTVSSGGGGS[human IgG1 Fc with C220S (EU numbers) not printed]
notes: Single polypeptide with Fc; also called DbInk13
On to B3, for which the Kd was 0.21 nM in assay [3] and 0.215 nM in assay [4].

B4: Dblnk7, linker-enhanced single-chain bispecific antibody (bispecific antibody)
chain: DIQMTQSPSSLSASVGDRVTITCKSSQSLLNSGNQKSYLTWYQQKPGKAPKLLIYWASTLESGVPSRFSGSGSGTDYTLTISSLQPEDFATYYCQNAYFFPFTFGQGTKVEIKGGGSEVQLVESGGGLVQPGGSLRLSCAASGFTFSRYWMSWVRQAPGKGLEWVANIKQDGSEKYYVDSVKGRFTISRDNAKNSLYLQMNSLRAEDTAVYYCAREGGWFGELAFDYWGQGTLVTVSSGSSGRGSSGGSGGSSGEIVLTQSPGTLSLSPGERATLSCRASQRVSSSYLAWYQQKPGQAPRLLIYDASSRATGIPDRFSGSGSGTDFTLTISRLEPEDFAVYYCQQYGSLPWTFGQGTKVEIKGGSGEVQLVESGGGLVQPGGSLRLSCAVSGYTFSMNWVRQAPGKGLEWVAWINMYTGEPTYADDFKGRFTISRDDSKNTLYLQMNSLRAEDTAVYYCARLYNGNSLDYWGQGTLVTVSSGGGGS[human IgG1 Fc with C220S (EU numbers) not printed]
notes: Single polypeptide with Fc; also called DbInk7
Consider B4, for which the Kd in assay [3] was found to be 0.25 nM; in assay [5] it was 0.248 nM.

B5: Dblnk14, linker-enhanced single-chain bispecific antibody (bispecific antibody)
chain: DIQMTQSPSSLSASVGDRVTITCKSSQSLLNSGNQKSYLTWYQQKPGKAPKLLIYWASTLESGVPSRFSGSGSGTDYTLTISSLQPEDFATYYCQNAYFFPFTFGQGTKVEIKGSSGEVQLVESGGGLVQPGGSLRLSCAASGFTFSRYWMSWVRQAPGKGLEWVANIKQDGSEKYYVDSVKGRFTISRDNAKNSLYLQMNSLRAEDTAVYYCAREGGWFGELAFDYWGQGTLVTVSSSSGSSSGSRSGSSSGGSEIVLTQSPGTLSLSPGERATLSCRASQRVSSSYLAWYQQKPGQAPRLLIYDASSRATGIPDRFSGSGSGTDFTLTISRLEPEDFAVYYCQQYGSLPWTFGQGTKVEIKSGGGGGEVQLVESGGGLVQPGGSLRLSCAVSGYTFSMNWVRQAPGKGLEWVAWINMYTGEPTYADDFKGRFTISRDDSKNTLYLQMNSLRAEDTAVYYCARLYNGNSLDYWGQGTLVTVSSGGGGS[human IgG1 Fc with C220S (EU numbers) not printed]
notes: Single polypeptide with Fc; also called DbInk14
Regarding B5, the “ADCC reporter assay, EC50 (FIG. 24B)” value in assay [1] came out at 0.00409 nM. Further, in assay [2], the “ADCC Reporter in MCF7-CLDN 18.2, EC50” value is 0.004 nM. Moreover, the equilibrium dissociation constant (Kd) in assay [3] and in assay [4] was 0.2 nM each time.

B6: Dblnk5, linker-enhanced single-chain bispecific antibody (bispecific antibody)
chain: DIQMTQSPSSLSASVGDRVTITCKSSQSLLNSGNQKSYLTWYQQKPGKAPKLLIYWASTLESGVPSRFSGSGSGTDYTLTISSLQPEDFATYYCQNAYFFPFTFGQGTKVEIKGGGSEVQLVESGGGLVQPGGSLRLSCAASGFTFSRYWMSWVRQAPGKGLEWVANIKQDGSEKYYVDSVKGRFTISRDNAKNSLYLQMNSLRAEDTAVYYCAREGGWFGELAFDYWGQGTLVTVSSSSGSGGGSSSGSSGGEIVLTQSPGTLSLSPGERATLSCRASQRVSSSYLAWYQQKPGQAPRLLIYDASSRATGIPDRFSGSGSGTDFTLTISRLEPEDFAVYYCQQYGSLPWTFGQGTKVEIKSGGRGGEVQLVESGGGLVQPGGSLRLSCAVSGYTFSMNWVRQAPGKGLEWVAWINMYTGEPTYADDFKGRFTISRDDSKNTLYLQMNSLRAEDTAVYYCARLYNGNSLDYWGQGTLVTVSSGGGGS[human IgG1 Fc with C220S (EU numbers) not printed]
notes: Single polypeptide with Fc; also called DbInk5
On to B6, for which the figures for the equilibrium dissociation constant (Kd) in assay [3] and in assay [5] were 0.25 nM and 0.246 nM, respectively.

B7: Dblnk9, linker-enhanced single-chain bispecific antibody (bispecific antibody)
chain: DIQMTQSPSSLSASVGDRVTITCKSSQSLLNSGNQKSYLTWYQQKPGKAPKLLIYWASTLESGVPSRFSGSGSGTDYTLTISSLQPEDFATYYCQNAYFFPFTFGQGTKVEIKGSSRSSEVQLVESGGGLVQPGGSLRLSCAASGFTFSRYWMSWVRQAPGKGLEWVANIKQDGSEKYYVDSVKGRFTISRDNAKNSLYLQMNSLRAEDTAVYYCAREGGWFGELAFDYWGQGTLVTVSSSGSSGSSSSSGSGSGEIVLTQSPGTLSLSPGERATLSCRASQRVSSSYLAWYQQKPGQAPRLLIYDASSRATGIPDRFSGSGSGTDFTLTISRLEPEDFAVYYCQQYGSLPWTFGQGTKVEIKSSGSGGEVQLVESGGGLVQPGGSLRLSCAVSGYTFSMNWVRQAPGKGLEWVAWINMYTGEPTYADDFKGRFTISRDDSKNTLYLQMNSLRAEDTAVYYCARLYNGNSLDYWGQGTLVTVSSGGGGS[human IgG1 Fc with C220S (EU numbers) not printed]
notes: Single polypeptide with Fc; also called DbInk9
On to B7, for which, in assay [1], the “ADCC reporter assay, EC50 (FIG. 24A)” value worked out at 0.00264 nM. In addition, the “ADCC Reporter in MCF7-CLDN 18.2, EC50” value in assay [2] came out at 0.003 nM. The Kd in assay [3] came to 0.27 nM; in assay [5], 0.269 nM.

B8: Dblnk8, linker-enhanced single-chain bispecific antibody (bispecific antibody)
chain: DIQMTQSPSSLSASVGDRVTITCKSSQSLLNSGNQKSYLTWYQQKPGKAPKLLIYWASTLESGVPSRFSGSGSGTDYTLTISSLQPEDFATYYCQNAYFFPFTFGQGTKVEIKGGGSSEVQLVESGGGLVQPGGSLRLSCAASGFTFSRYWMSWVRQAPGKGLEWVANIKQDGSEKYYVDSVKGRFTISRDNAKNSLYLQMNSLRAEDTAVYYCAREGGWFGELAFDYWGQGTLVTVSSGGGGSGGGGSGGGGSEIVLTQSPGTLSLSPGERATLSCRASQRVSSSYLAWYQQKPGQAPRLLIYDASSRATGIPDRFSGSGSGTDFTLTISRLEPEDFAVYYCQQYGSLPWTFGQGTKVEIKGSGSGGEVQLVESGGGLVQPGGSLRLSCAVSGYTFSMNWVRQAPGKGLEWVAWINMYTGEPTYADDFKGRFTISRDDSKNTLYLQMNSLRAEDTAVYYCARLYNGNSLDYWGQGTLVTVSSGGGGS[human IgG1 Fc with C220S (EU numbers) not printed]
notes: Single polypeptide with Fc; also called DbInk8
B8: the Kd came to 0.26 nM in assay [3] and 0.259 nM in assay [5].

In general, Kd refers to the concentration at which binding is half-saturated.
